Assay results taken from patent publication US20200179510A1, “LOW DENSITY LIPOPROTEIN RECEPTOR RELATED PROTEIN 5 INHIBITION SUPPRESSES TUMOR FORMATION” (YALE UNIVERSITY, priority 2017, published 2020).

Experiments:
[1] = system: Wnt reporter gene TOPFlash; assay: Wnt reporter gene (TOPFlash) assay in HEK293 cells; type: cell-based; details: Wnt3A CM, 5F8 120 nM (FIG. 1E)
Protocol: The Stat5 reporter assays were done in HEK293T cells for activated JAK1-induced activity or in those stably expressing JAK3, IL2/15Rβ and the common receptor γ subunit for IL15 induced activity. Cells were seeded at 8×10^4 cells per well in 48 well plate. The next day, cells were transfected by Lipofectamine 2000 (Invitrogen) with the pGL4.52-STAT5-Luciferase (Promega) and tagRFP (internal control) plasmids together with other plasmids expressing genes of interest. The total amount of plasmid was kept at 125 ng per well. The cells were added 24 hours after transfection with IL15/IL15Rα-Fc complex or mock. Six hours later, the cells were lysed and subjected to RFP fluorescence and luciferase luminescence measurement using an Envision Multilabel plate reader. The reporter gene activity is shown after being normalized against RFP readings. The LEF reporter assay was carried out in HEK293 cells that were transfected with the TOPFlash and GFP plasmids. The rest is the same as above. The reporter gene activity is shown after being normalized against GFP readings.
A functional mouse monoclonal anti-DKK2 antibody (5F8) was developed to specifically target and neutralize DKK2, but to not cross react with DKK-1. […]

MC38 cells or tumors = assay: Microarray gene expression analysis of MC38 cells or tumors; design: species or system mouse; details: 5F8-treated vs isotype IgG-treated
MC38 cells = assay: MC38 cell growth in culture; type: cell-based, mouse
DKK2 binding to LRP5 = assay: DKK2-AP binding assay on LRP5-transfected HEK293 cells; details: HEK293 transfected with LRP5, 5F8 120 nM
Protocol: The binding assay was performed as previously described (56). In brief, HEK293T cells were transfected with LacZ or LRP5 using Lipofectamine Plus for 24 hours. Cells were washed once with a cold washing buffer (Hanks' buffered salt solution containing 1% bovine serum albumin, 20 mM HEPES, and 0.5% NaN3) and incubated with the washing buffer containing 20% of DKK2-AP conditioned medium on ice for 2 h. The cells were then washed three times with the washing buffer and lysed with 1% Triton X-100 and 20 mM Tris-HCl, pH 7.5. The lysates were heated at 65° C. for 10 min to inactivate endogenous AP and then added with a chemiluminescence AP substrate (Thermo Fisher T1015). The activity was measured by an EnVision plate reader.
To examine whether 5F8 blocks DKK2 binding to LRP5, a binding assay was performed. In this study, HEK293 cells were transfected with LacZ (control plasmid) or LRP5 expression plasmid. The direct binding of DKK2-AP fusion protein to LRP5 overexpressed on the cell surface was measured, both in the presence or absence of 5F8.

[2] = system: intestinal polyps of APC^Min/+ mice; assay: Tumor burden (intestinal polyps) in APC^Min/+ mice; type: in vivo, mouse; details: 8 mg/kg twice a week i.p., 8 weeks
From the text: The role of DKK2 in tumorigenesis was further tested by examining the effects of DKK-2 deficiency on polyp formation in APC^Min/+ mice (designated APC) and APC^Min/+ DKK2^−/− (APCKO) mice. Mice were housed in a specific pathogen free vivarium and fed with regular or high fat chow. Intestinal sections were stained with methylene-blue and polyps were counted under a stereomicroscope. […] There were smaller and fewer intestinal polyps in an APC^Min/+ DKK2^−/− mice than in APC^Min/+ mice, as shown in representative histological sections of intestine, stained with haematoxylin and eosin, from male mice fed regular chow (FIG. 1C).
To investigate if the 5F8 antibody reduced polyp formation in APC^Min/+ mice, similar to DKK2 deficiency in APC^Min/+ DKK2^−/− mice, the tumor burden was analyzed in treated and control mice. […] Further, the number of polyps in 5F8-treated APC^Min/+ mice was essentially the same as the number of polyps found in APC^Min/+ DKK2^−/− mice, either 5F8 or control IgG treated mice (FIG. 1G). Taken together, the results provide proof of principle evidence that 5F8 is a blocking antibody for DKK2 that suppresses tumor formation via the Wnt co-receptor LRP 5/6 pathway. Further, 5F8 blocks the interaction between DKK2 and LRP5 interaction, but in doing so, 5F8 also promoted DKK2-mediated disinhibition of Wnt signaling.

[3] = system: tumor infiltrated leukocytes (CD8+ and NK1.1+ cells); assay: Flow cytometry of tumor infiltrated leukocytes, MC38 tumors; type: in vivo, mouse
Protocol: Tumors were minced using scissors and scalpel blades and incubated with a digestion buffer [RPMI1640, 5% FBS, 1% PS, 25 mM HEPES and 300 U collagenase (Sigma C0130)] in a shaker for 2 h at 37° C. Disperse cells were filtered through a 70 μm cell strainer to eliminate clumps and debris. After centrifugation for 5 minutes (500×g) at 4° C., cell pellets were resuspended in the Red Blood Cell Lysis Buffer (Sigma R7757) and incubated at RT for 5 min to remove erythrocytes. Cells were pelleted again, resuspended and incubated in 0.05% Trypsin/EDTA at 37° C. for 5 min, followed by DNA digestion with the addition of Type I DNase (1 μg/ml final, Sigma D4263) for 5 min. Trypsin digestion was stopped by the addition of FBS to 5%, and cells were filtered again by a 40 μm cell strainer. Finally, the cells were pelleted again and resuspended in PBS at a concentration of […].
(§1) Cells in single cell suspension were fixed with 2% PFA (Santa-Cruz sc-281692). After washing with a Flow Cytometry Staining Buffer (eBioscience 00-4222-26), cells were stained with antibodies for cell surface markers for 1 hour on ice in the dark. For staining of intracellular proteins, the cells were washed and resuspended in the Permeabilization Buffer (BD 554723) and stained by antibodies in the Permeabilization Buffer for 1 hour on ice in the dark. The cells were then pelleted and resuspended in the Flow Cytometry Staining Buffer for flow cytometry analysis.

[4] = system: leukocytes in Peyer's patches; assay: Flow cytometry of leukocytes in Peyer's patches of APC^Min/+ mice; type: in vivo, mouse; details: one dose 8 mg/kg i.p., 24 hours
Protocol: as §1

[5] = 5F8 10 mg/kg i.p. Days 9 and 12, tumors collected Day 14, vs isotype
[6] = one injection 10 mg/kg i.p., 24 hours

B1: 5F8: Mouse monoclonal antibody to DKK2, raised against a synthetic peptide of human DKK2 (SEQ ID NO: 21); chains SEQ ID NOs: 22, 23 (antibody, V domains shown)
VH: GAELVRPGASVKLSCKASGYSFTNYWMNWVKQRPGQGLEWIGMIHPSDSETRLNQKFKDKATLTVDKSSSTAYMQLSSPTSEDSAVYYCAREGRLGLRSYAMDYWGQGTSVTVSS
VL: PSSLAMSVGQKVTMSCKSSQSLLNSSNQKNYLAWYQQKPGQSPKLLVYFASTRESGVPDRFVGSGSGTDFTLTITSVQAEDLADYFCQQHYITPLTFGAGTKLE
[1]
  DKK2-mediated inhibition of Wnt reporter gene activity induced by Wnt3A: antagonizes DKK2-mediated inhibition of Wnt reporter gene activity
MC38 cells or tumors
  expression of IL-2, IL-15, MHC-I haplotypes, NKG2D ligands, Fas or TRAILR1/2: did show significant alteration
MC38 cells
  growth of MC38 cells in culture: did not affect the growth of MC38 cells in culture
DKK2 binding to LRP5
  binding of DKK2-AP fusion protein to LRP5 on the cell surface: blocked DKK2 binding to LRP5
[2]
  number of intestinal polyps: significantly diminished the number of intestinal polyps
[3]; [5]
  granzyme B in tumor infiltrated CD8+ and NK1.1+ cells: significant increases in granzyme B
  percentage of myeloid, CD4+, CD8+, T regulatory, NK1.1+ cells in tumors: no significant differences
[3]; [6]
  IFNγ in CD8+ and NK1.1+ cells after acute treatment: trends of increased IFNγ
  PD-1 in CD8+ cells after acute treatment: trends of increased
  activation markers on CD8+ cells after acute treatment: significant increases in CD69, CD107a, CD314, and CD25
  activation markers on NK cells after acute treatment: CD69 and CD314 on NK cells
  granzyme B in tumor infiltrated CD8+ and NK1.1+ cells after acute treatment: strong increases in granzyme B
  populations of CD4+, CD8+, NK1.1+ cells in tumors after acute treatment: no significant differences
[4]
  populations of T lymphocytes in Peyer's patches: without affecting the populations of T lymphocytes cells
[4]; vs control IgG
  granzyme B-positive CD8+ cells in Peyer's patches: markedly increased granzyme B-positive CD8+ cells
